# According to the supplement of paper PMC7826260:
# Some of the results follow. Each Rep nickase domain was tested in vitro on the same pool of single strands (3 µM enzyme, 1 h, 37 °C); shown is the middle of each 90-letter strand. Numbers give uncut DNA relative to the enzyme-free pool, as log2; more negative means more cut, near 0 not cut, and no call is made. The scaling is to total reads; where an enzyme cuts many sequences, the uncut ones exceed 0.
# Key:
# Test in all cases: uncleaved DNA left, log2 of reads against the no-enzyme library (log2 ratio); higher = less cleavage (more negative = more Rep cleavage of the k-mer); sequences stand for … in CTCGTCCG…ACCGGAGA
# [1] = test system: T1, Rep nickase domain of Muscovy duck circovirus
# T1 sequence (protein, residues 1-111, tag omitted): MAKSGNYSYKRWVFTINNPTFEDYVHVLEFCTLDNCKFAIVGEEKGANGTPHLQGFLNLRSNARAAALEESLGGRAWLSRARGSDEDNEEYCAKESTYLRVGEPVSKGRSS
# Protocol: (§1)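 A pool of 90-nt single-stranded DNAs with seven random bases just before the constant AC of the nick site (name = the seven bases) was cut by 3 µM recombinant His6-SUMO-tagged Rep nickase domain (300 nM DNA, 50 mM HEPES pH 8.0, 50 mM NaCl, 1 mM MnCl2, 1 h, 37 °C, three replicates). Uncut DNA was amplified and sequenced.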
# [2] = test system: T2, Rep nickase domain of banana bunchy top virus
# T2 sequence (protein, residues 1-94, tag omitted): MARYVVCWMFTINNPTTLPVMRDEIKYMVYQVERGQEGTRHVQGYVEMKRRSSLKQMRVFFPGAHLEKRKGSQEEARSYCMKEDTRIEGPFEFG
# Protocol: as §1
# [3] = test system: T3, Rep nickase domain of cabbage leaf curl virus
# T3 sequence (protein, residues 1-116, tag omitted): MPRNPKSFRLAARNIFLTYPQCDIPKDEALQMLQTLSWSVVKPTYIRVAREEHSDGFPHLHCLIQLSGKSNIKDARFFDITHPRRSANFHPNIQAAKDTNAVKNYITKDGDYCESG
# Protocol: as §1
# [4] = test system: T4, Rep nickase domain of chickpea chlorotic dwarf virus
# T4 sequence (protein, residues 1-124, tag omitted): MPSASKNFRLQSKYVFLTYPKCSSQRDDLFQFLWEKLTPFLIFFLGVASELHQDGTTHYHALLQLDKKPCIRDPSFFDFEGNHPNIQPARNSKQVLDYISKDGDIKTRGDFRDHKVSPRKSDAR
# Protocol: as §1
# [5] = test system: T5, Rep nickase domain of faba bean necrotic yellows virus
# T5 sequence (protein, residues 1-98, tag omitted): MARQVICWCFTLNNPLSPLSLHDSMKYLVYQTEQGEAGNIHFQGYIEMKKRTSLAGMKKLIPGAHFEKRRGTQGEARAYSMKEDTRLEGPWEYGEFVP
# Protocol: as §1
# [6] = test system: T6, Rep nickase domain of maize striate mosaic virus
# T6 sequence (protein, residues 1-117, tag omitted): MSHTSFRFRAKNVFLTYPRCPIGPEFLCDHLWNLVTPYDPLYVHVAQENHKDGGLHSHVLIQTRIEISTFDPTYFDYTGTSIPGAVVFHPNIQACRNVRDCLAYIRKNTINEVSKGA
# Protocol: as §1
# [7] = test system: T7, Rep nickase domain of porcine circovirus 2
# T7 sequence (protein, residues 2-116, tag omitted): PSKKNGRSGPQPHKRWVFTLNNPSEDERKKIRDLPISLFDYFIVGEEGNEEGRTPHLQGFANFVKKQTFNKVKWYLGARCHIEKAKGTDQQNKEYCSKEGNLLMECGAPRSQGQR
# Protocol: as §1
# [8] = test system: T8, Rep nickase domain of tomato golden mosaic virus
# T8 sequence (protein, residues 1-124, tag omitted): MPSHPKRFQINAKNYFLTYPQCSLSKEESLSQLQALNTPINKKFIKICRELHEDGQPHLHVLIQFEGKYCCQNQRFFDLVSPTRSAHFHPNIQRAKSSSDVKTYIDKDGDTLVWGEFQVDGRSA
# Protocol: as §1
# [9] = test system: T9, Rep nickase domain of tomato yellow leaf curl virus
# T9 sequence (protein, residues 1-136, tag omitted): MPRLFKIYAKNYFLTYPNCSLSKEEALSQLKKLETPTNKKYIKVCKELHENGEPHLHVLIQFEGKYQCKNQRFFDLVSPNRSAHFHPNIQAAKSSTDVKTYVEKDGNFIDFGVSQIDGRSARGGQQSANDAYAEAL
# Protocol: as §1
# [10] = test system: T10, Rep nickase domain of wheat dwarf virus
# T10 sequence (protein, residues 1-137, tag omitted): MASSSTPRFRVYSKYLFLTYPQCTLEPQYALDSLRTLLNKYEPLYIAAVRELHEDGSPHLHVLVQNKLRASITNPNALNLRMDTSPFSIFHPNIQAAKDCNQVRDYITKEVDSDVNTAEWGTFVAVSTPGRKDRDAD
# Protocol: as §1
Sequence,uncleaved DNA left (log2) [1],uncleaved DNA left (log2) [2],uncleaved DNA left (log2) [3],uncleaved DNA left (log2) [4],uncleaved DNA left (log2) [5],uncleaved DNA left (log2) [6],uncleaved DNA left (log2) [7],uncleaved DNA left (log2) [8],uncleaved DNA left (log2) [9],uncleaved DNA left (log2) [10]
ATTTGAA,0.0889,0.121,-0.147,-0.49,0.139,-0.627,-0.105,0.15,0.176,0.176
TCAGTGC,0.139,0.074,-0.685,-0.592,0.0765,-1.17,0.243,0.11,0.212,0.0681
AAATCCC,-0.048,-0.141,-2.62,-2.33,-0.06,-0.532,-0.427,-0.649,-0.0821,-1
CAGCACC,-0.0165,-0.0443,0.0137,-0.482,-0.0193,-0.548,-0.106,-0.1,-0.087,0.0154
TTGCTGC,0.0338,-0.0343,-0.31,-0.403,0.0394,-0.884,0.065,-0.08,0.0101,-0.0207
TGGTTTT,-2.25,-0.184,0.229,-0.862,-0.304,0.914,-3.06,-0.0766,0.0879,-0.0497
CCAACTG,-0.0582,-0.0415,0.262,1.1,0.00669,1.46,0.109,-0.0797,-0.127,-0.00117
GGCACAA,0.0172,0.0188,0.66,1.68,-0.0636,2,0.207,-0.0249,-0.0953,0.15
GTGACAC,0.0481,0.107,0.641,1.53,0.0203,2.15,0.197,0.116,0.0505,0.247
CGTAACT,0.00467,-0.109,-0.253,-2.09,-0.0172,-0.122,-0.511,-0.0716,-0.0809,0.0639
GGATCCT,0.00184,0.107,0.494,0.958,-0.0349,1.8,-0.209,-0.0495,-0.00275,0.0436
TTGATCT,-0.0509,-0.0944,-0.00188,-1.75,-0.111,-0.555,-0.407,-0.11,0.0485,-0.0283
CTTGACT,0.0823,-0.12,-0.174,-2.48,0.0631,-0.373,-1.7,0.0217,-0.00491,-0.0754
AGATAGA,0.0043,0.00902,0.0407,0.131,0.0857,-0.706,0.105,0.0806,0.0442,-0.0591
AGCCTCT,0.161,0.0483,0.0272,-0.875,-0.00276,0.556,-0.268,0.0254,0.0418,0.0257
AACCAAT,-0.0575,0.0111,-0.312,-1.99,-0.138,-0.492,-1.57,-0.014,-0.109,-0.141
GTCGGAA,0.109,0.0481,0.482,1.05,-0.035,1.77,0.0838,0.0397,0.19,0.184
CGGTAAA,0.0326,-0.0015,0.207,0.329,-0.0857,0.282,-0.0118,0.0799,-0.0439,-0.0202
TAATTAG,0.202,0.0665,-1.09,-1.25,0.202,-1.34,0.142,0.0409,0.123,-0.0453
TTGACAG,0.119,0.0538,-0.131,0.173,0.0222,-0.542,0.156,0.043,0.103,-0.0262

Sequence,uncleaved DNA left (log2) [1],uncleaved DNA left (log2) [2],uncleaved DNA left (log2) [3],uncleaved DNA left (log2) [4],uncleaved DNA left (log2) [5],uncleaved DNA left (log2) [6],uncleaved DNA left (log2) [7],uncleaved DNA left (log2) [8],uncleaved DNA left (log2) [9],uncleaved DNA left (log2) [10]
ATTCGCG,-0.119,-0.0561,-0.417,1.12,0.0114,0.202,0.0383,-0.0753,-0.00488,0.0211
GCATCAT,0.029,0.103,0.302,0.666,-0.146,0.539,0.113,0.016,0.0787,0.114
ATTAGGC,0.121,0.116,0.197,0.512,-0.0582,-0.489,0.201,0.109,0.122,0.121
ATTCACC,0.053,-0.00872,0.0354,-0.385,-0.0538,-0.65,-0.196,0.0986,-0.00255,0.0491
ACACGCT,0.108,-0.0927,-0.837,-2,0.0178,-0.995,0.0627,-0.00695,-0.0143,-0.232
GCTTCGC,-0.00988,0.0284,-0.257,-0.126,-0.0706,-0.681,0.172,0.023,-0.00533,-0.151
CACCATC,0.167,0.18,-0.00428,-0.677,0.0824,-0.926,-0.134,0.0582,0.0679,0.075
CCGCCGT,-0.164,-0.243,-0.537,-0.765,-0.0376,-0.748,-0.0968,-0.167,-0.275,-0.297
AGTCAAA,0.124,0.0901,0.189,0.52,-0.00671,-0.0069,-0.476,0.216,0.0533,0.165
TGCGCTC,-0.0416,-0.00644,-0.0952,-0.218,-0.0146,-0.374,0.0706,-0.0534,-0.0754,-0.0521
CAAAAGT,-0.0608,0.0156,-0.901,-2.63,0.038,-1.09,-0.317,-0.063,0.0189,-0.281
TTACATG,-0.015,-0.0249,-0.64,-1.63,0.026,-1.12,0.0615,-0.125,0.0167,-0.059
TCCCGAA,-0.117,-0.00405,0.134,-0.026,-0.271,-0.455,-0.0583,-0.227,-0.165,-0.165
TAGGATG,0.152,-0.0808,-0.144,0.0177,-0.0574,-0.121,0.00377,0.12,0.108,0.00312
GGCGCAC,-0.108,0.131,0.547,1.35,0.011,1.78,0.196,-0.0969,0.0459,0.106
GCGTGTA,0.0661,0.0577,0.0382,0.0797,0.0473,0.312,-0.27,0.0529,-0.0319,-0.0122
ACGAATC,-0.079,0.00666,-0.0194,-0.0348,0.106,-0.651,0.141,0.0404,-0.0873,-0.0902
GTTTTTT,-0.471,-0.036,0.239,0.583,-0.139,1.65,-0.634,-0.0289,-0.0639,-0.0704
CGACATG,0.0703,0.125,0.0584,0.682,-0.0172,1.71,-0.0211,0.0977,0.0224,0.107
TTCTATT,-3.78,-2.68,-2.31,-2.83,-0.251,-0.87,-3.49,-0.384,-0.144,-0.669

Sequence,uncleaved DNA left (log2) [1],uncleaved DNA left (log2) [2],uncleaved DNA left (log2) [3],uncleaved DNA left (log2) [4],uncleaved DNA left (log2) [5],uncleaved DNA left (log2) [6],uncleaved DNA left (log2) [7],uncleaved DNA left (log2) [8],uncleaved DNA left (log2) [9],uncleaved DNA left (log2) [10]
ACGACCG,-0.1,0.00628,-0.46,-0.51,-0.0485,-0.954,0.00696,0.00039,-0.141,-0.158
AGCACAC,0.0736,0.033,0.0334,0.456,0.0987,0.646,-0.00673,0.00391,0.118,0.103
CGTTGAG,0.047,-0.0317,-0.595,0.592,0.112,-0.507,0.13,-0.0761,0.109,-0.179
TGTCCGT,0.0472,-0.0373,-0.114,-0.421,-0.0224,-0.628,-0.0452,-0.161,-0.0087,-0.0426
GCACGGC,-0.0374,-0.0951,0.0435,0.468,0.0574,0.0129,-0.0115,0.00596,-0.12,-0.154
GAACCTT,0.0225,0.0076,0.252,-0.951,-0.0707,1.47,-0.254,-0.137,0.00802,0.0336
TTGAATG,0.0758,-0.124,-0.252,-0.0164,-0.108,-0.466,-0.0349,-0.0742,-0.111,-0.177
TACTAAC,0.132,0.143,-0.272,-1.72,-0.000597,-0.543,-0.546,0.0254,0.0416,0.0575
CGGAGAT,-0.0539,0.0793,0.173,1.23,-0.0616,1.26,-0.0159,-0.000599,-0.0174,-0.0402
CCGGCAC,-0.0124,-0.0901,0.189,0.0751,0.112,0.167,0.0376,-0.0321,-0.00501,-0.0933
TTCGACA,0.0235,-0.0229,0.142,-0.46,0.00996,0.35,-0.231,-0.029,0.0375,0.0175
GAGCAAT,0.148,0.0746,0.362,0.937,-0.0112,1.39,-1.82,0.0741,0.134,0.177
ATGAGCT,0.11,0.164,-0.128,-0.671,0.131,-0.628,0.145,0.145,0.147,-0.0224
ACATCAC,-0.0854,-0.128,-0.527,-0.963,-0.0945,-0.948,0.0456,-0.0293,-0.242,-0.174
CTGTACC,-0.0675,-0.0817,0.0386,-0.0557,-0.0975,0.108,-0.242,-0.11,0.0218,-0.0585
AACACCA,-0.0349,0.00231,-0.142,-2.44,-0.061,-0.269,-0.0992,-0.0192,-0.0401,-0.0445
ATAGTTG,-0.0131,0.0358,-0.211,-0.0216,-0.0752,-0.612,0.0728,0.0895,-0.0769,-0.0853
GCAACTA,0.0566,0.0471,0.0262,-0.648,0.0872,0.11,-0.0532,0.0579,0.0705,0.0769
CCCTATT,-2.93,-1.82,-0.878,-2.77,-0.29,-0.763,-2.99,-0.153,-0.112,-0.735
GGTCTGC,-0.038,0.0493,0.296,0.88,-0.0796,1.09,0.1,0.118,0.0547,0.00361
